The supplement of paper PMC3334620
The full ranking holds about 33,000 sequences; the median of “E-score (-0.5 to 0.5)” is about -0.012, and the highest 2% start at about 0.29. Some of the results follow.

molecular target: T1, Ybr033w (UniProt P38073); test: PBM E-score (8-mer binding enrichment) (E-score (-0.5 to 0.5)); higher = stronger / more preferred TF binding; most listed sequences are background and not binding sites; settings: protein concentration: 200 nM; construct: GST-full length
T1 sequence: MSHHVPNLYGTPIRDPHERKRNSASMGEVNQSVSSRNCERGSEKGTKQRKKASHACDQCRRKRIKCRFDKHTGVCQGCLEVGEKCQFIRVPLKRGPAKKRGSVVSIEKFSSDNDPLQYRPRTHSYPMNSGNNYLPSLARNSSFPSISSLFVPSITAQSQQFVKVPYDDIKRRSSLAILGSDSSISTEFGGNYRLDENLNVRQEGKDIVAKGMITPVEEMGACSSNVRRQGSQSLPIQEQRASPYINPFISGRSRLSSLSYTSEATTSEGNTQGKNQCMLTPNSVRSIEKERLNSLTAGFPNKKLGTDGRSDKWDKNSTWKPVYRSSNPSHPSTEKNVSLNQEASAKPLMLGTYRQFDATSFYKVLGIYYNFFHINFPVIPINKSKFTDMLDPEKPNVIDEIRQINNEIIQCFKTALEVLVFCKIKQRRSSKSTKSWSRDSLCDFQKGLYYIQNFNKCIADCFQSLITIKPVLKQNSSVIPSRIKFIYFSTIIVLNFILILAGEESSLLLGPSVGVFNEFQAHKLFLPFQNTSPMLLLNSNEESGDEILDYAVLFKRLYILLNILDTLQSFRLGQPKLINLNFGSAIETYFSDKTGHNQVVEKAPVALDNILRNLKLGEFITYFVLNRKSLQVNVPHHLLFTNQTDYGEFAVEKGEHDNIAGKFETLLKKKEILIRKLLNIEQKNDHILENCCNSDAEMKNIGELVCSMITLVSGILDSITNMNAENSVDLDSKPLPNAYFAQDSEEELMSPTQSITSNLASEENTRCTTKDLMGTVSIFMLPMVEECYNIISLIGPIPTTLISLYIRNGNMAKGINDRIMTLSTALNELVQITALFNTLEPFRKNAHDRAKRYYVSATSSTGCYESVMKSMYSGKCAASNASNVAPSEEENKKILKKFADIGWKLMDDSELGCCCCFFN
In short: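 For each ungapped eight-base word taken together with its reverse complement, the Universal PBM Analysis Suite assigned an E-score. Binding data came from GST-tagged yeast transcription factors, applied at about 100-200 nM, on universal all-10-mer Agilent arrays made double-stranded by primer extension. Fluorescent anti-GST marked bound protein, and scans were normalised with masliner.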

Sequence	PBM E-score
ACTGCCCT	-0.159
AGCCCAGG	-0.308
GACTTGTA	-0.0325
TCCAGACA	-0.127
AACTGAGT	0.0318
CCTCCTCA	-0.274
AATGGTAT	0.0341
AGACACGC	-0.119
GTAACTCA	-0.11
GAGACGCC	-0.0848
ATCAAAGC	0.139
ACAGCTGT	0.0529
TAGCGAAA	0.157
TAGCTACA	0.112
TCGGCCGA	-0.046
GGAGAAAC	0.285
TCACCGGA	0.0852
CCCCTTTC	-0.262
CCCCACAC	-0.255
CAAGAGAC	-0.0846
ATCGCTGA	-0.00895
CGCGGCGC	-0.117
ACATAGAT	0.0459
ATGTGATG	0.0682
ACTCGGAA	0.163

Sequence	PBM E-score
ACAACCGC	-0.0548
TTCAGCAA	0.162
CCCCAATC	-0.267
TATCGGCA	-0.0356
ATTTCGAC	0.00349
ACCGCTCA	-0.00828
GGGCCCAC	-0.36
CGTCGCTC	-0.181
AATTTGAT	0.242
CGGGAGTA	0.171
GCAACAGC	-0.0851
ACCAAATG	0.0476
CGAAACAA	0.187
ACCCTAGT	-0.0891
GTCATGAC	-0.126
AAGAGCGA	-0.0384
GAAACTCA	0.0909
GCAATCCA	0.122
AATCTCGA	0.0193
CGTGGCCC	-0.278
CGGATAAG	-0.013
CGACTGCG	-0.218
GGGGTGCA	-0.219
ACCATATA	0.246
ATGCACGC	0.126

Sequence	PBM E-score
CGTACAAC	0.144
CCCCCCGA	-0.331
ATGGTCCG	0.129
ACATTTCG	0.0576
GTCCTGCA	-0.112
CAAGAAAC	0.202
ACATCAGT	0.036
CGGTGTTA	-0.0586
ATGCGGGC	-0.0914
ATGAGTAG	0.136
CGAGACAG	-0.0759
ACGTTGTC	-0.0499
AATAAACT	0.221
GACCTATC	-0.0417
GCCCTAGA	-0.367
CATGAGCG	-0.143
GAAAGTTA	0.218
AAGCACGC	0.053
AGTCGCAG	-0.0829
TCCTACAA	0.146
GGTTGGAA	-0.16
ACCAGGCT	-0.156
GGCCACTA	-0.184
CAACCCAA	0.07
GCCCCGTA	-0.286

Sequence	PBM E-score
TGCCCACA	-0.184
CGCCCGAA	-0.0773
AAACTCAG	0.0191
CCACCATC	-0.168
ATTCCATA	0.184
AGGAGCCC	-0.295
AAGTCGAC	0.0844
AACGGTCG	0.0267
CCTCGGCG	0.043
TGGGCTAA	-0.0063
AAAAAAAG	0.273
AAAACACA	0.21
CCTCAGTC	-0.0487
AGCAATTC	0.0769
AGGGCGCG	-0.0891
CTTCTTAA	0.124
AAATGCTC	0.16
CTTCAACA	0.0272
GATGAAAA	0.00976
CCTTCACC	-0.132
AGATTGGG	0.0807
TGAATTAA	0.226
ACGGGGTG	-0.117
CAACTATA	0.146
ACCGTCCA	0.0406

Sequence	PBM E-score
AAAACGCT	0.0375
AGGAATTC	0.129
CACCGCGA	0.0136
CAACGGTG	-0.316
ATGCAGCA	0.0882
AAAATTTC	0.132
ACGTCAAT	-0.0265
GATCGCCC	-0.204
ACTAGGTC	0.0292
TCTTATCA	0.211
ATTACCCA	0.129
AATGTTTA	0.221
CGATTTAC	0.0542
ACGAGCCG	0.0563
CGACGGCC	-0.243
ACAAGCTA	0.012
AGTGGGTC	-0.199
CTCCGTCA	-0.0826
AGCGCAAG	-0.0628
CTCAATCA	-0.0022
CCTGGCCC	-0.239
AGGCACCT	-0.275
AATCTGCT	0.00792
AGGTTGCC	-0.191
CTAAGTAA	0.153

Sequence	PBM E-score
ACGTAACG	-0.112
CCGTTACG	-0.188
GACGAGTC	-0.172
AGCGTAAC	0.215
AAAGTTGG	0.0498
AAAATGAT	0.369
GGTGCCAC	-0.264
TAATGATA	0.231
CGCTGCGA	0.0285
ACGCTCTA	-0.258
CTTTCCCA	0.0774
GCAAAGGC	-0.125
CACATAAG	-0.067
ATTAGAAA	0.135
AGTATACT	-0.0243
CACCGGGA	-0.153
GAGCGTAA	0.0655
AGCCAACT	-0.135
ACGCCGAT	-0.117
AACTGATT	0.0282
GGAAGACC	-0.111
CCATATAA	0.0777
AGCGTGCG	-0.0659
CCGCCCTA	-0.209
CATTTAGC	0.056

Sequence	PBM E-score
GTAGAAGA	0.0331
AATACGAA	0.203
CACAACCC	-0.0485
AACAGCTA	0.031
GAAGAGAC	0.0169
GCCAGGAC	-0.224
TAGGGACA	-0.0843
AAGAAGGG	-0.147
GGAAGAAA	0.34
CCCTTTGA	-0.129
GCAGCCCA	-0.227
AAACCTAG	0.0566
GCCGCACA	-0.153
ATATAACC	-0.0293
AAAATATA	0.28
AGTTTGGA	0.202
ATGCAAGG	-0.187
AAGTTCAA	0.214
AATCTCCC	-0.211
AATCAGGT	0.209
TCAACTCA	-0.0095
GAGCCAAA	-0.113
AGCTACCA	0.0753
CTATAAAG	0.0555
GATTTGCC	0.0208

Sequence	PBM E-score
GACCGTGA	-0.00429
CACCCATC	-0.117
AAAGCAAA	0.203
CAATTAAG	0.209
AAACAGGT	-0.0285
AGCTGTTC	-0.167
CTGTGGCC	-0.353
ACGAATGG	0.102
AATGCGCT	0.109
CGCAACCA	-0.0619
CTTTGGGC	-0.126
CAACGCTA	-0.235
CCCAGCAA	-0.118
GCTAACCC	-0.204
GTCAAGGA	-0.103
CGAGAGGA	-0.106
ATAGCTAG	-0.0835
CGACGGTA	-0.0307
CATTGCAG	0.0441
GATTTCTA	0.00415
CCAGAGAC	-0.0184
AGTTGACC	-0.0414
GAAGATTA	0.366
AACGAATT	0.216
TCATCACA	0.0229

Sequence	PBM E-score
CCAACAAA	0.227
ACACAGCT	0.036
TAGGTGCA	-0.0741
ACAGGAAG	-0.19
GAAGAACA	0.353
AAACCTAA	0.0716
ACGCACGG	-0.194
CAGGTGCC	-0.195
GACTCATC	-0.172
ATTCGGTA	0.139
AGATGGAC	0.0158
GTCGATAA	-0.161
ATGGGGGA	-0.165
CAACTTGA	0.253
AAAGAAGT	0.128
ACTGAGCA	-0.147
CCGTGTGA	-0.172
CGTGCAGA	-0.229
CATTCGAG	0.0185
